# Experimental data taken from PMC9911399, “Two distinct binding modes provide the RNA-binding protein RbFox with extraordinary sequence specificity”.
# Substitutions are numbered along the chain they refer to; changes in the protein carry UniProt numbers. The list shows a part of the results.
# T1: RBFOX1 RRM (Homo sapiens, UniProt Q9NWB1 109-208)
# T1 sequence: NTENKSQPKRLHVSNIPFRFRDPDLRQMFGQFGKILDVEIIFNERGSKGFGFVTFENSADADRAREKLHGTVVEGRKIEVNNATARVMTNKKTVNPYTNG
# B1: ACUUAGC (DNA:RNA)
# RNA: GGGAGACCGGAAUUCAGAUUGUCCACUUAGCUUAAAUCCCGUCGUAGCCACCA
# DNA 1: CAATCTGAATTCCGGTCTCCC
# DNA 2: TGGTGGCTACGACGGGATT
# B2: GGGGGUA (DNA:RNA)
# RNA: GGGAGACCGGAAUUCAGAUUGUCCGGGGGUAUUAAAUCCCGUCGUAGCCACCA
# DNA 1: CAATCTGAATTCCGGTCTCCC
# DNA 2: TGGTGGCTACGACGGGATT
# B3: GAAGUAC (DNA:RNA)
# RNA: B2 RNA with G26A, G27A, G29U, U30A, A31C
# DNA 1: CAATCTGAATTCCGGTCTCCC
# DNA 2: TGGTGGCTACGACGGGATT
# B4: CAGUGCC (DNA:RNA)
# RNA: B1 RNA with A25C, C26A, U27G, A29G, G30C
# DNA 1: CAATCTGAATTCCGGTCTCCC
# DNA 2: TGGTGGCTACGACGGGATT
# B5: GACCUGG (DNA:RNA)
# RNA: B1 RNA with A25G, C26A, U27C, U28C, A29U, C31G
# DNA 1: CAATCTGAATTCCGGTCTCCC
# DNA 2: TGGTGGCTACGACGGGATT
# B6: CAACGUU (DNA:RNA)
# RNA: B2 RNA with G25C, G26A, G27A, G28C, A31U
# DNA 1: CAATCTGAATTCCGGTCTCCC
# DNA 2: TGGTGGCTACGACGGGATT
# B7: UCGAUAA (DNA:RNA)
# RNA: B2 RNA with G25U, G26C, G28A, G29U, U30A
# DNA 1: CAATCTGAATTCCGGTCTCCC
# DNA 2: TGGTGGCTACGACGGGATT
# B8: GUCUCAU (DNA:RNA)
# RNA: B1 RNA with A25G, C26U, U27C, A29C, G30A, C31U
# DNA 1: CAATCTGAATTCCGGTCTCCC
# DNA 2: TGGTGGCTACGACGGGATT
# B9: UCACUUC (DNA:RNA)
# RNA: B1 RNA with A25U, U27A, U28C, A29U, G30U
# DNA 1: CAATCTGAATTCCGGTCTCCC
# DNA 2: TGGTGGCTACGACGGGATT
# B10: CCUGACA (DNA:RNA)
# RNA: B1 RNA with A25C, U28G, G30C, C31A
# DNA 1: CAATCTGAATTCCGGTCTCCC
# DNA 2: TGGTGGCTACGACGGGATT
# B11: GGCGGGC (DNA:RNA)
# RNA: B2 RNA with G27C, U30G, A31C
# DNA 1: CAATCTGAATTCCGGTCTCCC
# DNA 2: TGGTGGCTACGACGGGATT
# B12: UGUUACU (DNA:RNA)
# RNA: B1 RNA with A25U, C26G, G30C, C31U
# DNA 1: CAATCTGAATTCCGGTCTCCC
# DNA 2: TGGTGGCTACGACGGGATT
# B13: AGCACGC (DNA:RNA)
# RNA: B1 RNA with C26G, U27C, U28A, A29C
# DNA 1: CAATCTGAATTCCGGTCTCCC
# DNA 2: TGGTGGCTACGACGGGATT
# B14: GUUCGAA (DNA:RNA)
# RNA: B2 RNA with G26U, G27U, G28C, U30A
# DNA 1: CAATCTGAATTCCGGTCTCCC
# DNA 2: TGGTGGCTACGACGGGATT
# B15: UUCGGAA (DNA:RNA)
# RNA: B2 RNA with G25U, G26U, G27C, U30A
# DNA 1: CAATCTGAATTCCGGTCTCCC
# DNA 2: TGGTGGCTACGACGGGATT
# B16: ACAUAUA (DNA:RNA)
# RNA: B1 RNA with U27A, G30U, C31A
# DNA 1: CAATCTGAATTCCGGTCTCCC
# DNA 2: TGGTGGCTACGACGGGATT
# B17: GAUGCCG (DNA:RNA)
# RNA: B2 RNA with G26A, G27U, G29C, U30C, A31G
# DNA 1: CAATCTGAATTCCGGTCTCCC
# DNA 2: TGGTGGCTACGACGGGATT
# B18: UACCAGC (DNA:RNA)
# RNA: B1 RNA with A25U, C26A, U27C, U28C
# DNA 1: CAATCTGAATTCCGGTCTCCC
# DNA 2: TGGTGGCTACGACGGGATT
# B19: CAUCCUC (DNA:RNA)
# RNA: B1 RNA with A25C, C26A, U28C, A29C, G30U
# DNA 1: CAATCTGAATTCCGGTCTCCC
# DNA 2: TGGTGGCTACGACGGGATT
# B20: CCGCACU (DNA:RNA)
# RNA: B1 RNA with A25C, U27G, U28C, G30C, C31U
# DNA 1: CAATCTGAATTCCGGTCTCCC
# DNA 2: TGGTGGCTACGACGGGATT
# B21: ACCCUAG (DNA:RNA)
# RNA: B1 RNA with U27C, U28C, A29U, G30A, C31G
# DNA 1: CAATCTGAATTCCGGTCTCCC
# DNA 2: TGGTGGCTACGACGGGATT
# B22: ACCGCGC (DNA:RNA)
# RNA: B1 RNA with U27C, U28G, A29C
# DNA 1: CAATCTGAATTCCGGTCTCCC
# DNA 2: TGGTGGCTACGACGGGATT
# B23: GCCGAAC (DNA:RNA)
# RNA: B1 RNA with A25G, U27C, U28G, G30A
# DNA 1: CAATCTGAATTCCGGTCTCCC
# DNA 2: TGGTGGCTACGACGGGATT
# B24: UAGGUUC (DNA:RNA)
# RNA: B2 RNA with G25U, G26A, G29U, A31C
# DNA 1: CAATCTGAATTCCGGTCTCCC
# DNA 2: TGGTGGCTACGACGGGATT
# B25: CCGGCUA (DNA:RNA)
# RNA: B2 RNA with G25C, G26C, G29C
# DNA 1: CAATCTGAATTCCGGTCTCCC
# DNA 2: TGGTGGCTACGACGGGATT
# B26: CCUAAUG (DNA:RNA)
# RNA: B1 RNA with A25C, U28A, G30U, C31G
# DNA 1: CAATCTGAATTCCGGTCTCCC
# DNA 2: TGGTGGCTACGACGGGATT
# B27: AGAUCGG (DNA:RNA)
# RNA: B1 RNA with C26G, U27A, A29C, C31G
# DNA 1: CAATCTGAATTCCGGTCTCCC
# DNA 2: TGGTGGCTACGACGGGATT
# B28: GGGCUGC (DNA:RNA)
# RNA: B2 RNA with G28C, G29U, U30G, A31C
# DNA 1: CAATCTGAATTCCGGTCTCCC
# DNA 2: TGGTGGCTACGACGGGATT
# B29: UUAAGAA (DNA:RNA)
# RNA: B2 RNA with G25U, G26U, G27A, G28A, U30A
# DNA 1: CAATCTGAATTCCGGTCTCCC
# DNA 2: TGGTGGCTACGACGGGATT
# B30: CUGUAUU (DNA:RNA)
# RNA: B1 RNA with A25C, C26U, U27G, G30U, C31U
# DNA 1: CAATCTGAATTCCGGTCTCCC
# DNA 2: TGGTGGCTACGACGGGATT
# B31: UAAGUGU (DNA:RNA)
# RNA: B1 RNA with A25U, C26A, U27A, U28G, A29U, C31U
# DNA 1: CAATCTGAATTCCGGTCTCCC
# DNA 2: TGGTGGCTACGACGGGATT
# Target: T1, RBFOX1 RRM
# Assay: EMSA; HiTS-Eq, 1 nM pool, 10 min; buffer printed only for the single-RNA assays: 10 mM Tris pH 7.5, 150 mM NaCl, 3.4 mM EDTA, 0.001% NP-40, 30 C
# Conditions: tags: His6 N-terminal (pET28a); label: 5' 32P
# Outline: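 Relative association constants, normalised to the cognate motif, were derived by comparing read counts of each RNA species with those of the control reaction. The RNA sequenced was the free fraction, separated by 8% native PAGE after a 10 min equilibration in 50 µL of 1 nM 5′-radiolabelled RNA (7 randomized nucleotides) with increasing concentrations of purified wild-type or mutant RbFox RRM.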
row,Binder,binding signal
1,B1,0.00895 KA relative to UGCAUGU
2,B2,0.026 KA relative to UGCAUGU
3,B3,0.0079 KA relative to UGCAUGU
4,B4,0.00746 KA relative to UGCAUGU
5,B5,0.0193 KA relative to UGCAUGU
6,B6,0.0031 KA relative to UGCAUGU
7,B7,0.00672 KA relative to UGCAUGU
8,B8,0.00884 KA relative to UGCAUGU
9,B9,0.00407 KA relative to UGCAUGU
10,B10,0.00293 KA relative to UGCAUGU
11,B11,0.0218 KA relative to UGCAUGU
12,B12,0.014 KA relative to UGCAUGU
13,B13,0.0234 KA relative to UGCAUGU
14,B14,0.0191 KA relative to UGCAUGU
15,B15,0.00868 KA relative to UGCAUGU
16,B16,0.00156 KA relative to UGCAUGU

row,Binder,binding signal
1,B17,0.0098 KA relative to UGCAUGU
2,B18,0.00367 KA relative to UGCAUGU
3,B19,0.00301 KA relative to UGCAUGU
4,B20,0.00621 KA relative to UGCAUGU
5,B21,0.00387 KA relative to UGCAUGU
6,B22,0.00734 KA relative to UGCAUGU
7,B23,0.0141 KA relative to UGCAUGU
8,B24,0.0212 KA relative to UGCAUGU
9,B25,0.0133 KA relative to UGCAUGU
10,B26,0.00839 KA relative to UGCAUGU
11,B27,0.014 KA relative to UGCAUGU
12,B28,0.0228 KA relative to UGCAUGU
13,B29,0.0137 KA relative to UGCAUGU
14,B30,0.00801 KA relative to UGCAUGU
15,B31,0.0159 KA relative to UGCAUGU
